From PubChem BioAssay AID504648 (National Center for Advancing Translational Sciences (NCATS), 2011)
The campaign covered roughly 390,000 compounds. About 610 (0.16%) were called active. Not shown: some 4% with an inconclusive outcome. Calls follow the shape of the dose curve; as a rule, active = well fitted inhibition curve with a large enough effect; inconclusive = small, poorly fitted or top-dose-only effect, or effect the other way, or another doubt; inactive = no such curve, though single readings can be large or run the other way. Only a part is listed here, and it is no random draw.

Assay: Nrf2 qHTS screen for inhibitors: counterscreen for cytotoxicity
Conditions: A549 ARE-Fluc cells, CellTiter-Fluor viability, 18-24 h; series mostly up to 46 µM; activity change, negative = cytotoxicity: at the top concentration
From the text: NIH Molecular Libraries Probe Production Network [MLPCN]
NIH Chemical Genomics Center [NCGC]
Assay Provider: Shyam Biswal, Johns Hopkins University
Nrf2 is a transcription factor that maintains cellular redox homoestasis and protects cells from xenobiotics. Nrf2 binds to the antioxidant response element (ARE) to induce gene expression of a broad spectrum of genes that encode for antioxidants. […] Finding a small molecule that act as an inhibitor of Nrf2 function would represent a novel therapeutic target that could lead to improvement in survival of patients undergoing chemo- and/or radio- therapy.
So here we implemented a counterscreen to weed out the cytotoxic compounds.
1. Shibata, T., et al., Genetic Alteration of Keap1 Confers Constitutive Nrf2 Activation and Resistance to Chemotherapy in Gallbladder Cancer. Gastroenterology, 2008.
2. Sjoblom, T., et al., The consensus coding sequences of human breast and colorectal cancers. Science, 2006. 314(5797): p. 268-74.
NCGC Assay Protocol Summary:
A concentration-response assay was performed with A549 ARE_Fluc cells which are suspended in 5% FBS OPTI-MEM. Five uL were dispensed into 1536-well white TC-treated plate using the Kalypsys dispenser to achieve a density of 5000 cells/well in all columns except column 1. The plate is incubated at 37deg C at 5% CO2 for 2 hours before 23 nL of compounds are added with the Kalypsys pin tool equipped with a 1,536-pin array containing 10-nL slotted pins (FP1S10, 0.457-mm diameter, 50.8 mm long; V&P Scientific). The control compounds Budesonide and Staurosporine are both added at a concentration of 2mM and Budesonide is also added as a 1:10 titration, starting at 200uM, to achieve dose-response. After an 18-24 hour incubation at 37deg C at 5% CO2, 5ul of medium is added to column 1. Afterwards 1ul of 5x of CellTiter-Fluor (Promega) is added to every well. The plate is then incubated at 37deg C at 5% CO2 for 30 minutes before they are read on the ViewLux (Perkin Elmer) for a fluorescent read Ex=405(10)/Em=525(10) for a 3 second exposure, 2x binning, and high gain. Then 3 uL of 3x BugLite is dispensed into all wells and the plate is incubated at ambient room temperature for 15 minutes. Afterwards another ViewLux read is performed using the clear filter to get a luminescent read with the settings of 40 second exposure, 2x binning, and high gain. Cytotoxicity is assessed through the first fluorescent read and then biochemical activity against Nrf2 is measured in the luminescent read.
% is scaled to controls: 0 for no effect and ±100 for the full control effect; potency is read from the fitted curve at half-maximal effect.

Structure (SMILES)	activity change, negative = cytotoxicity	Potency
CN(C)[C@@H]1C(=O)C(C(N)=O)=C(O)[C@@]2(O)C(=O)C3=C(O)c4c(O)ccc(Cl)c4[C@@](C)(O)[C@H]3C[C@@H]12	inactive: 1.47%	
CCC(C)/C=C(C)/C=C/C1=CC2=C(Cl)C(=O)C(C)(OC(C)=O)C(=O)C2=CO1 (stereo unspecified)	inactive: -22.4%	
NCCc1cc(O)c(O)cc1O	inactive: -13.4%	
C[C@]12CC[C@H](O)C[C@H]1CC[C@@H]1C2CC[C@]2(C)[C@@H](C3=CC(=O)OC3)[C@@H](O)C[C@]12O (stereo partly specified)	inactive: -19.7%	
C[C@H]1[C@H](OC(=O)CCC(=O)NCc2ccc(C(=O)O)cc2)O[C@@H]2O[C@@]3(C)CC[C@H]4[C@H](C)CC[C@@H]1C24OO3		active: 20.6 µM
CC(C)n1c(/C=C/[C@H](O)C[C@H](O)CC(=O)O)c(-c2ccc(F)cc2)c2ccccc21	inactive: -12%	
O=C1/C(=C/c2ccncc2)N2CCC1CC2	inactive: 1.5%	
CC(=O)OC(C)(C)/C=C/C(=O)C(C)(O)C1C(O)CC2(C)C3CC=C4C(CC(O)C(=O)C4(C)C)C3(C)C(=O)CC12C (stereo unspecified)		active: 2.91 µM
CC[C@H](C)/C=C(C)/C=C/C1=CC2=C(Cl)C(=O)[C@@](C)(OC(C)=O)C(=O)C2=CO1	inactive: -18.4%	
COC[C@H]1OC(=O)c2coc3c2[C@@]1(C)C1=C(C3=O)[C@@H]2CCC(=O)[C@@]2(C)C[C@H]1OC(C)=O		active: 16.4 µM
O=C1NC(=O)N(Cc2ccccc2)C(=O)/C1=C/C=C/c1ccco1	inactive: -15%	
COc1ccc(-n2c(/C=C3/C(=O)Nc4ccccc43)nc3ccccc3c2=O)cc1	inactive: -14.4%	
COc1cc2c3cc1Oc1c(OC)c(OC)cc4c1[C@H](Cc1ccc(cc1)Oc1cc(ccc1O)C[C@H]3N(C)CC2)N(C)CC4		active: 13 µM
COc1cc2c(c(OC)c1OC)-c1ccc(O)c(=O)cc1[C@@H](NC(C)=O)CC2	inactive: -17%	
Cn1nc(-c2ccc(OCC(=O)N3CCN(Cc4ccccc4)CC3)cc2)c2ccccc2c1=O	inactive: -1.7%	
COc1ccc(OC)c(N2C(=O)NC(=O)/C(=C\c3ccc([N+](=O)[O-])s3)C2=O)c1	inactive: -15%	
CC(=O)O[C@@]12CO[C@@H]1C[C@H](O)[C@@]1(C)C(=O)[C@H](O)C3=C(C)[C@@H](O)C[C@@](O)([C@@H](OC(=O)c4ccccc4)C12)C3(C)C (stereo partly specified)	inactive: -0.132%	
COc1cc(NC(=O)CCn2c(=O)oc3ccccc32)cc(OC)c1OC	inactive: 0.38%	
COc1ccc(N2C(=O)NC(=O)/C(=C\c3ccc([N+](=O)[O-])s3)C2=O)cc1	inactive: -25%	
Cc1ccccc1N1C(=O)NC(=O)/C(=C\c2cc(Br)c(N3CCOCC3)o2)C1=O		active: 23.1 µM
Fc1ccc([C@@H]2CCNC[C@H]2COc2ccc3c(c2)OCO3)cc1	inactive: -11.2%	
COC(COC(N)=O)C1=C(N2CC2)C(=O)C(C)=C(N2CC2)C1=O (stereo unspecified)		active: 10.3 µM
Cc1cc(C)cc(N2C(=O)NC(=O)/C(=C/c3cccn3-c3ccc(Cl)cc3)C2=O)c1	inactive: -6.43%	
CC(=O)OC(C)(C)/C=C/C(=O)[C@](C)(O)C1[C@H](O)C[C@@]2(C)C3CC=C4C(C[C@H](O)C(=O)C4(C)C)[C@]3(C)C(=O)C[C@]12C (stereo partly specified)		active: 0.651 µM
COc1cc(C2c3cc4c(c(O)c3CC3COC(=O)C32)OCO4)cc(OC)c1OC (stereo unspecified)	inactive: -3.43%	
CC1=C(N2CC2)C(=O)C(CO)=C(N2CC2)C1=O		active: 9.2 µM
